Results from ChEMBL document CHEMBL4888484, “Replenishing the malaria drug discovery pipeline: Screening and hit evaluation of the MMV Hit Generation Library 1 (HGL1) against asexual blood stage Plasmodium falciparum ,using a nano luciferase reporter read-out” (2022).
In all, about 150,000 compounds went through this assay and about 540 (0.36%) showed an effect of 50% or more. This is one part of the list.

System: Plasmodium falciparum
Experiment: Primary screen in NF54 nanoGlo assay, in single point, at 2uM, 72h; a lower Z score goes with more inhibition
Format: functional, Erythrocyte
Conditions: timepoint 72 hour

Row | SMILES | % Inhibition [%] | Z score
1 | CCN(CCCCO)C(=O)NCc1ccc(C)c(C)c1 | -9 | 1.76
2 | Cc1cc(O)c(C(C)C)cc1NC(=O)CCCc1nccs1 | -8 | 1.35
3 | CN1C[C@]2(CCCN(Cc3ccc(OCC(=O)c4ccccc4)cc3)C2)CCC1=O | -5 | 0.67
4 | Cc1cc(C)cc(NC(=O)Nc2ccnn2C[C@H]2CCOC2)c1 | 14 | -1.6
5 | COc1ccc(N2CCN(Cc3nc(C(=O)NCC(C)C)co3)CC2)cc1 | -2 | 0.47
6 | CCn1cc(C(=O)NS(=O)(=O)Cc2ccc(Cl)c(F)c2)cn1 | -8 | 1.02
7 | Cc1ccc(Br)cc1NC(=O)N(C)C | -7 | 1.22
8 | COc1ccc(NC(=O)[C@H]2CC(=O)N(c3[nH]nc4cc(Br)ccc34)C2)cn1 | -17 | 1.79
9 | C#Cc1cccc(N(Cc2ccco2)S(=O)(=O)C[C@H]2CCCO2)c1 | 2 | -0.24
10 | OC1(CCNc2ncnc3c2Cc2ccccc2OC3)CCCC1 | 6 | -0.61
11 | Cc1cc(S(=O)(=O)N2CCN(Cc3ccncc3)CC2)c(C)s1 | 11 | -1.44
12 | CC(C)c1nn(C)cc1CN1CCCC2(C1)OCCO2 | -8 | 1.55
13 | N#Cc1nc(-c2cccs2)oc1N1CCC[C@H](O)C1 | -15 | 2.08
14 | COc1cc2ccc1Oc1cccc(c1)CO[C@H]1CN(C(=O)c3ccncc3)C[C@@H]1NC(=O)CN(C1CC1)C(=O)CC2 | -13 | 1.65
15 | CCCn1nc(-c2ccc(F)c(F)c2)nc1CCN | -3 | 0.42
16 | CCC[C@@H](C(=O)N1CCN(CC)CC1)n1c(Cc2c(Cl)cccc2Cl)nc2ccccc21 | -5 | 0.75
17 | C[C@H]1CNC(=O)CCN1C(=O)c1ccccc1-c1nccn1C | -8 | 1.16
18 | Cc1cc(NCCCc2ncnn2C)nc(C)n1 | -10 | 1.66
19 | CNC(=O)C(C)(C)CN[C@H]1CCCc2ccc(OC)c(Cl)c21 | -4 | 0.49
20 | CC(C)(C)C1CCC(OC[C@@H](O)CN2CCCC2)CC1 (stereo partly drawn) | -8 | 1.12
21 | Cc1cn2nc(C(=O)Nc3ccc4c(c3)OCCO4)cc2c(N(C)Cc2ccccc2)n1 | 16 | -3.07

Row | SMILES | % Inhibition [%] | Z score
22 | CC(C(=O)N1CCOCC1C1CCCCC1O)c1cncnc1 (stereo not drawn) | 2 | -0.41
23 | Cc1n[nH]c(C)c1CC(=O)Nc1c(C)n(C)n(C2CCCCC2)c1=O | -16 | 2.13
24 | Cn1ncc2c(=O)n(CC3CC3)cnc21 | -7 | 0.97
25 | Cc1cc(C)nc(CN(C)c2nc(N)nc(C)c2CCC(=O)O)c1 | -11 | 1.77
26 | O=C(c1ccc2nsnc2c1)N1C2CCC1CC(n1cccn1)C2 (stereo not drawn) | -11 | 1.46
27 | CCCc1[nH]ccc1C(=O)N1CCN(C(=O)c2ccccc2)CC1 | -11 | 1.44
28 | Cc1ccc2ncc(CNc3nnc(C(C)C)o3)n2c1 | -11 | 1.6
29 | CCn1c(=O)c(N2CCC(NC(=O)Nc3ccccc3C)CC2)nc2ccccc21 | -19 | 2.33
30 | Cc1cc(N)n(CC(=O)N2CC[C@@]3(CCCN(CC4CC4)C3=O)C2)n1 | -7 | 1.56
31 | Cc1ccc(S(=O)(=O)NCc2ccc(N3CCC[C@H](C)C3)cc2)cc1 | -12 | 1.04
32 | CCCC(CCC)C(=O)N1C[C@H]2CC(=O)NCCN(C)C(=O)c3cccc(OC)c3OCc3cn(nn3)[C@H]2C1 | -3 | 0.41
33 | c1ccc(Cn2nncc2CN2CCC(OC3CCC3)CC2)cc1 | 9 | -1.21
34 | Nc1nc(N2CCN(CCOc3ccccc3)CC2)cc([C@H]2C[C@@H](O)C2)n1 | -10 | 1.2
35 | Cn1cccc1C(=O)N1CCN(c2cc(C(F)(F)F)ncn2)CC1 | -14 | 1.83
36 | Cc1csc(CN(C)c2ccc(C(=O)Nc3nncs3)cn2)n1 | 10 | -1.2
37 | COc1ccc(OC)c([C@@H]2c3ccc(O)cc3Oc3nc(N)c(C#N)c(N)c32)c1 | 10 | -1.24
38 | COC(=O)[C@H](C)Oc1ccc(Oc2nc(N(C)C)nc(N3CCCC3)n2)nn1 | 8 | -0.89
39 | CC[C@@H](c1cccc(OC)c1)N(C)Cc1cnc2nc(C)cc(C)n12 | -11 | 1.79
40 | O=C(c1ccco1)N1CCN(c2nc(Nc3ccc(F)cc3)c3nn[nH]c3n2)CC1 | -13 | 2.02
41 | COc1cc(Cl)c(C)cc1NC(=O)CN(C)Cc1cnn(C)c1 | 3 | -0.54
42 | C[C@H](NC(=O)c1cccc2ccccc12)C1CC1 | -16 | 2.25

Row | SMILES | % Inhibition [%] | Z score
43 | Cc1nc2c(c(=O)n1C)CN(Cc1[nH]c3ccccc3c1Cl)C2 | -9 | 1.75
44 | O=C(OC1CCS(=O)(=O)C1)c1cccc(NC(=O)C2Cc3ccccc3O2)c1 (stereo not drawn) | -8 | 1.32
45 | CC(C)[C@H](NCc1nnc(C2CC2)n1C)C1(CO)CCCC1 | 1 | -0.19
46 | CCc1ccccc1NC(=O)[C@@H]1CCN(S(C)(=O)=O)c2ccccc2O1 | 3 | -0.42
47 | CCCCC(=O)N1C[C@H](c2nc(-c3ccccc3)no2)C2(CCOCC2)C1 | -2 | 0.28
48 | Cn1cnnc1CCNC(=O)[C@](C)(Nc1ccccc1)c1ccccc1 | -23 | 2.1
49 | O=C1NC2(CCCC2)C(=O)N1CCCCN1C(=O)c2ccccc2C1=O | -10 | 1.66
50 | Clc1ccc(-c2cc(Cn3ccnn3)on2)cc1 | 0 | 0.06
51 | Cc1ccc(S(=O)(=O)N2C3CCC2CC(=C2CC2)C3)cc1C | 1 | -0.26
52 | CC(C)OCCS(=O)(=O)NC(C)(C)c1cccs1 | -8 | 1.36
53 | CN(C)S(=O)(=O)NCc1ccccc1 | 0 | -0.04
54 | CC1CCC2(CC1)NC(=O)N(C[C@H](O)COCc1ccccc1)C2=O (stereo partly drawn) | -21 | 1.91
55 | Cc1cc(C(=O)NCC[C@H](C)n2nc(C)cc2C)c2c(-c3ccc(F)cc3)noc2n1 | 37 | -4.22
56 | Cc1ccc(S(=O)(=O)NC[C@H]2CN(CC3CC3)CC23CCCCC3)c(C)c1 | 9 | -1.38
57 | CCn1ncc(NC(=O)c2cc(C3CC3)nc3onc(-c4cccc(OC)c4)c23)c1C | -3 | 0.46
58 | Cc1n[nH]c(CNc2ncnc3c2ncn3C)c1C | -5 | 0.92
59 | Clc1ccc(-c2noc(-c3ccc4c(c3)OCCO4)n2)cc1 | -15 | 1.75
60 | O=C(c1cncc(-c2ccc(Cl)cc2)c1)N1CC[C@@](O)(C(F)(F)F)C1 | -17 | 2.35
61 | Nc1cc(-c2cncc(C(=O)N3CCOCC3)n2)c2cc[nH]c2n1 | -13 | 1.29
62 | CC(C)CCn1c2c(c(=O)[nH]c1=O)[C@H](C(=O)Nc1ccc(F)c(F)c1F)CC(=O)N2 | 9 | -1.27
63 | COc1ccc(-c2cc3cc(C)[nH]c(=O)n3c2)cc1 | -3 | 0.39

Row | SMILES | % Inhibition [%] | Z score
64 | CC(C)[C@H](NS(=O)(=O)Cc1ccccc1)[C@H](O)C(F)(F)F | -19 | 1.57
65 | C[C@H]1Cc2ccccc2N1CCC(=O)Nc1sccc1C#N | -10 | 1.42
66 | COc1cccc(-c2cnc(-c3ccc(CNC(=O)c4c(F)cccc4F)cc3)[nH]2)c1 | 5 | -0.78
67 | O[C@@H](CN1CC(O)(c2ccc(Cl)cc2)C1)C(F)(F)F | -1 | 0.07
68 | Cn1ccnc1C(NC(=O)Nc1nc2c(s1)CCC2(C)C)c1nccn1C | -5 | 0.46
69 | Cn1nc(N2CC[C@H](NC(=O)C3CCCCC3)C2)ccc1=O | -6 | 0.81
70 | CC1CC(NC(=O)c2cn(C(C)C)cn2)C(=O)N1c1ccccc1 (stereo not drawn) | -2 | 0.33
71 | COc1cccc(CN2C[C@@H](n3cnnn3)C[C@H]2C(=O)NCc2ccc(C)cc2)c1 | 5 | -0.58
72 | COCCN(Cc1nnc(C(C)C)o1)CC(F)(F)F | -10 | 1.24
73 | CCC[C@H](Nc1nc(N)ncc1CC)C(=O)NC | -7 | 0.82
74 | CCOC(=O)N1CCC(n2c(=O)[nH]c3ccc(F)cc3c2=O)CC1 | -10 | 1.31
75 | CC1CC(C(=O)NCC2CCCCC2)c2ccccc2N1 (stereo not drawn) | 3 | -0.43
76 | O=C(N[C@H]1CCCc2ccccc21)c1cc(COc2ccc3ncccc3c2)on1 | -7 | 0.9
77 | CCCn1nccc1C(=O)NCc1nnc(CC)o1 | -3 | 0.49
78 | c1ccc(-c2noc(NC[C@H]3CCN(c4ccccc4)C3)n2)cc1 | -9 | 1.1
79 | O=C(CC[C@@H]1CCCN2CCCC[C@H]12)NC1(CO)CCCCC1 | -10 | 1.66
80 | CCc1nccn1CCC(=O)N1CC[C@@]2(O)CCCC[C@H]2C1 | -9 | 1.39
81 | CC1CN(C(=O)C2CN(S(C)(=O)=O)C2)CC(C)O1 (stereo not drawn) | -9 | 1.39
82 | Cc1nnc(-c2ccccc2C(=O)Nc2cccc(F)c2)o1 | 8 | -1.26
83 | COc1cc(CN2CCCN(c3ccc(NC(=O)COc4ccc(Cl)cc4)cn3)CC2)cc(OC)c1 | -18 | 2.3
84 | C=CCN(CCC)C(=O)c1sc(C)nc1C | -13 | 1.88
